Measured values taken from the supplement of paper PMC4967469.
IC50 is the fitted dose that halves viability relative to control wells, and lower means more sensitive; fits outside the tested doses are given as limits. AUC sums up the same curve from the lowest dose to the 256-fold higher top dose; it is 1 without any effect and falls as sensitivity rises. For some of these results: Any top dose called inferred was calculated from the reported fits. For some of these results: Where an entry number is given, a second screen of the drug exists; the two often differ.

Experiments:
Assay in all cases: Viability of human cancer cell lines after 72 h of drug (GDSC screen)
ABT-888 = compound: C[C@]1(c2nc3c(C(N)=O)cccc3[nH]2)CCCN1 [ABT-888]; conditions: top dose 5 µM; top dose inferred
Protocol: (§1)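 Human cancer cell lines in 384-well plates, medium with 10% serum, drug for 72 h over a 256-fold dose range (nine 2-fold or five 4-fold steps up to the top dose). Adherent lines were fixed and stained with the nucleic acid dye Syto60, suspension lines read with resazurin; signal relative to control wells, capped at 0 and 100%. One two-parameter sigmoid per drug and line, fitted in a mixed model over all curves with the slope shared within a line.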

GSK269962A = compound: CCn1c(-c2nonc2N)nc2cnc(Oc3cccc(NC(=O)c4ccc(OCCN5CCOCC5)cc4)c3)cc21 [GSK269962A]; conditions: top dose 5 µM; screen: GDSC drug entry 1192; top dose inferred
Protocol: as §1

QL-X-138 = compound: C=CC(=O)Nc1cc(-n2c(=O)ccc3cnc4ccc(-c5cn[nH]c5)cc4c32)ccc1C [QL-X-138]; conditions: top dose 10.24 µM; top dose inferred
Protocol: as §1

Cytarabine = compound: Nc1ccn([C@@H]2O[C@H](CO)[C@@H](O)[C@@H]2O)c(=O)n1 [Cytarabine]; conditions: top dose 2 µM
Protocol: as §1

ABT-869 = compound: Cc1ccc(F)c(NC(=O)Nc2ccc(-c3cccc4[nH]nc(N)c34)cc2)c1 [ABT-869]; conditions: top dose 1.024 µM; top dose inferred
Protocol: as §1

CHIR-99021 = compound: Cc1cnc(-c2cnc(NCCNc3ccc(C#N)cn3)nc2-c2ccc(Cl)cc2Cl)[nH]1 [CHIR-99021]
Protocol: as §1

(5Z)-7-Oxozeaenol = compound: COc1cc(O)c2c(c1)/C=C/C[C@H](O)[C@H](O)C(=O)/C=C\C[C@H](C)OC2=O [(5Z)-7-Oxozeaenol]; conditions: top dose 10 µM; top dose inferred
Protocol: as §1

MPS-1-IN-1 = compound: COc1cc(N2CCC(O)CC2)ccc1Nc1cc(Nc2ccccc2S(=O)(=O)C(C)C)c2cc[nH]c2n1 [MPS-1-IN-1]; conditions: top dose 20 µM; top dose inferred
Protocol: as §1

KU-55933 = compound: O=c1cc(-c2cccc3c2Sc2ccccc2S3)oc(N2CCOCC2)c1 [KU-55933]; conditions: top dose 10 µM
Protocol: as §1

Zibotentan = compound: COc1nc(C)cnc1NS(=O)(=O)c1cccnc1-c1ccc(-c2nnco2)cc1 [Zibotentan]; conditions: top dose 20 µM; top dose inferred
Protocol: as §1

CP466722 = compound: COc1cc2ncnc(-n3nc(-c4ccccn4)nc3N)c2cc1OC [CP466722]; conditions: top dose 16 µM; top dose inferred
Protocol: as §1

[1] = top dose 10 µM, screen: GDSC drug entry 1241, top dose inferred
[2] = top dose 2.56 µM, screen: GDSC drug entry 154

Cell Line | AUC (ABT-888) | IC50 (ABT-888) [µM] | AUC (GSK269962A) | IC50 (GSK269962A) [µM] | AUC (QL-X-138) | IC50 (QL-X-138) [µM] | AUC (Cytarabine) | IC50 (Cytarabine) [µM] | AUC (ABT-869) | IC50 (ABT-869) [µM] | AUC (CHIR-99021; [1]) | IC50 (CHIR-99021; [1]) [µM] | AUC ((5Z)-7-Oxozeaenol) | IC50 ((5Z)-7-Oxozeaenol) [µM] | AUC (MPS-1-IN-1) | IC50 (MPS-1-IN-1) [µM] | AUC (KU-55933) | IC50 (KU-55933) [µM] | AUC (Zibotentan) | IC50 (Zibotentan) [µM] | AUC (CP466722) | IC50 (CP466722) [µM] | AUC (CHIR-99021; [2]) | IC50 (CHIR-99021; [2]) [µM]
DOV13 (ovary, adherent) | 0.984 | > 5 | 0.883 | > 5 | 0.97 | > 10.2 | 0.662 | 0.38 | 0.979 | > 1.02 | 0.938 | > 10 | 0.633 | 1.54 | 0.968 | > 20 | 0.951 | > 10 | 0.976 | > 20 | 0.911 | > 16 |  | 
ECC10 (stomach, suspension) | 0.97 | > 5 | 0.937 | > 5 | 0.722 | 2.82 | 0.908 | > 2 | 0.975 | > 1.02 | 0.984 | > 10 | 0.765 | 3.83 | 0.899 | > 20 | 0.949 | > 10 | 0.982 | > 20 | 0.827 | 10.3 | 0.985 | > 2.56
EMC-BAC-1 (lung adenocarcinoma, adherent) | 0.974 | > 5 | 0.861 | > 5 | 0.787 | 5.12 | 0.948 | > 2 | 0.948 | > 1.02 | 0.918 | > 10 | 0.758 | 3.93 | 0.735 | 6.51 | 0.945 | > 10 | 0.976 | > 20 | 0.796 | 8.68 |  | 
EMC-BAC-2 (lung adenocarcinoma, adherent) | 0.974 | > 5 | 0.712 | 1.4 | 0.512 | 0.694 | 0.609 | 0.264 | 0.975 | > 1.02 | 0.885 | > 10 | 0.76 | 4.14 | 0.936 | > 20 | 0.981 | > 10 | 0.981 | > 20 | 0.721 | 4.81 |  | 
ESO26 (oesophagus, adherent) | 0.989 | > 5 | 0.923 | > 5 | 0.782 | 4.03 | 0.776 | 0.749 | 0.981 | > 1.02 | 0.984 | > 10 | 0.851 | 6.96 | 0.894 | > 20 | 0.987 | > 10 | 0.987 | > 20 | 0.852 | 11.3 |  | 
